The other results are listed elsewhere or left out.
Each sequence was assayed on PF3D7_0420300 AP2 domain 1 (GST-tagged) (assay: gcPBM binding intensity (ln(normalized median fluorescence intensity)); higher = stronger DNA binding).
How it was run: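 Alexa488 anti-GST antibody, scanned at 488 nm, detected GST-tagged P. falciparum DNA-binding domains that had been expressed in E. coli and incubated for 1 h on an Agilent 4 × 180k array. The array carried primer-extended double-stranded 36-bp intergenic genomic probes and negative controls. Binding intensity is the highest Masliner-normalised natural-log median intensity across replicate spots of either orientation of each probe.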

Row | Sequence | gcPBM binding intensity (ln)
1 | TAAATATAACAGAATAATATGTGGATTAATAAATGA [CACACA_negctrl_site438] | 9.37
2 | ATATAATATGTTGAATGTACTTAAAAAAATGTATCT [XGTACX_site5385] | 9.21
3 | AAAAAAAAAAAAAAAACACACATGTATACTAGAATA [CACACA_site7108] | 9.46
4 | TTAAGTTACAATTCTCGTACACATTAAAAGAAAATT [XGTACX_site699] | 9.02
5 | TTACAAATGTAGAAAAGTACATATAATAATAATTTA [XGTACX_site3044] | 9.14
6 | ATGGATAATAATAAGTGTACACATATATTTAGAAGA [XGTACX_site244] | 9.4
7 | AAAAAAAAAAAAAGCACACACACATATGCGTATATA [CACACA_site953] | 9.86
8 | TTTAAGCGTTCACTGCTGCACTTTTATGTTGTGACC | 9.08
9 | GGTAGAAAATCAGTTAAACACACACCGAAAAAAAAA [CACACA_site8934] | 9.67
10 | ATTTGTATAATAAGTTGTACAATTCTTACAATATAA [XGTACX_site4164] | 8.99
11 | GTCACATTGTTATATTGTACAAATGTCGTTCTTTTT [XGTACX_site8098] | 9.56
12 | CACTATCAATATATATGTACATATATATATATATAT [XGTACX_site7854] | 9.28
13 | TAAATATATAAATACACACAAACATACATATATATA [CACACA_site4050] | 9.88
14 | ATATAAAAATATATTAATATAAATAAATGGACATAT [XGTACX_negctrl_site488] | 9.44
15 | CTTATACATTATTAACGTACATGTTATATGAATAAC [XGTACX_site5752] | 9.15
16 | AACATTATAGGACACACACACACATATATATATATA [CACACA_site4721] | 10.2
17 | TTTTTTTTTTTTTTTTTTTTTTTTAAATGCTTCTAA [TGCATGCA_negctrl_site253] | 8.46
18 | TTTTAATTATATTATGCACACACAATTGGAAAAAAA [CACACA_site8598] | 9.52
19 | AACAAATAAGATAAATGACTTAACAAAAGAAAAAAG [CACACA_negctrl_site1409] | 9.57
20 | GTAAAAAATATGAATACACACATAAAGGAAATAACA [CACACA_site1997] | 9.96
21 | AAAAAAAAAAAATTCACACACATATAAAAAATTAAG [CACACA_site728] | 9.7
22 | AAAAAAAAAAAAAAAAGTACAGACGTCAAAAAAAAA [XGTACX_site4817] | 9.34
23 | TTTTTTTTTTTTTTTTTTTTTTTTGGGTCCCATACA [CACACA_negctrl_site913] | 8.59
24 | TAATATATAAGTATTTGTACATATTCATTCATCTAT [XGTACX_site2935] | 9.13

Source: the supplement of paper PMC11417369
